Results published in the supplement of paper PMC4967469.
The IC50 comes from the fitted curve, where viability falls to half of the control; where the fit passes the top or lowest dose, that dose stands as a limit. For AUC the same curve is integrated over the 256-fold range of doses and scaled to a fraction; the more sensitive the line, the further below 1. For some assays here: A top dose marked as inferred is not printed in the source and was worked back from the curve model. For some assays here: Drugs with an entry number were screened twice under separate entries, and the two screens often disagree.

How the values were obtained:
Assay in all cases: Viability of human cancer cell lines after 72 h of drug (GDSC screen)
[1] = compound: NCC(=O)Nc1ccc(-n2nc(C(F)(F)F)cc2-c2ccc3c(ccc4ccccc43)c2)cc1 [OSU-03012]; details: top dose 16 µM; top dose inferred
Protocol: (§1)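 Human cancer cell lines in 384-well plates, medium with 10% serum, drug for 72 h over a 256-fold dose range (nine 2-fold or five 4-fold steps up to the top dose). Adherent lines were fixed and stained with the nucleic acid dye Syto60, suspension lines read with resazurin; signal relative to control wells, capped at 0 and 100%. One two-parameter sigmoid per drug and line, fitted in a mixed model over all curves with the slope shared within a line.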

[2] = compound: O=c1[nH]cc(F)c(=O)[nH]1 [5-Fluorouracil]; details: top dose 32 µM; top dose inferred
Protocol: as §1

[3] = compound: Fc1cc(-c2ccnc(Nc3ccc(-n4cnc(N5CCOCC5)n4)cc3)n2)cc(N2CCOCC2)c1 [JNK-9L]; details: top dose 5.12 µM; top dose inferred
Protocol: as §1

[4] = compound: COc1cc(F)c(F)c(Nc2ccc(I)cc2F)c1NS(=O)(=O)C1(C[C@H](O)CO)CC1 [RDEA119]; details: top dose 5 µM, top dose inferred
Protocol: as §1

[5] = compound: C#Cc1cccc(Nc2ncnc3cc(OC)c(OCCCCCCC(=O)NO)cc23)c1 [CUDC-101]; details: top dose 5.12 µM; top dose inferred
Protocol: as §1

[6] = compound: CC(C)(C)c1cc(NC(=O)Nc2ccc(-c3cn4c(n3)sc3cc(OCCN5CCOCC5)ccc34)cc2)no1 [AC220]; details: top dose 1.024 µM; top dose inferred
Protocol: as §1

[7] = compound: OC[C@H](Cc1ccccc1)Nc1nc(Oc2ccc3c(c2)CCC3)nc2c1ncn2Cc1ccc(-c2ccccc2)cc1 [QS11]; details: top dose 10.24 µM
Protocol: as §1

MFE-319 (endometrium, adherent)
AUC [1]: 0.592
IC50 [1]: 1770 nM
AUC [2]: 0.983
IC50 [2]: > 32000 nM
AUC [3]: 0.586
IC50 [3]: 545 nM
AUC ([4]; screen: GDSC drug entry 1014): 0.913
IC50 ([4]; screen: GDSC drug entry 1014): > 5000 nM
AUC ([4]; screen: GDSC drug entry 1526): 0.892
IC50 ([4]; screen: GDSC drug entry 1526): > 5000 nM
AUC [5]: 0.929
IC50 [5]: > 5120 nM
AUC [6]: 0.988
IC50 [6]: > 1020 nM
AUC [7]: 0.831
IC50 [7]: 6230 nM

MFH-ino (soft tissue, adherent)
AUC [1]: 0.411
IC50 [1]: 544 nM
AUC [2]: 0.946
IC50 [2]: > 32000 nM
AUC [3]: 0.674
IC50 [3]: 1070 nM
AUC ([4]; screen: GDSC drug entry 1014): 0.597
IC50 ([4]; screen: GDSC drug entry 1014): 604 nM
AUC ([4]; screen: GDSC drug entry 1526): 0.788
IC50 ([4]; screen: GDSC drug entry 1526): 2610 nM
AUC [5]: 0.614
IC50 [5]: 699 nM
AUC [6]: 0.983
IC50 [6]: > 1020 nM
AUC [7]: 0.694
IC50 [7]: 2490 nM

MFM-223 (breast, adherent)
AUC [1]: 0.876
IC50 [1]: 15600 nM
AUC [2]: 0.966
IC50 [2]: > 32000 nM
AUC [3]: 0.899
IC50 [3]: > 5120 nM
AUC ([4]; screen: GDSC drug entry 1014): 0.927
IC50 ([4]; screen: GDSC drug entry 1014): > 5000 nM
AUC ([4]; screen: GDSC drug entry 1526): 0.923
IC50 ([4]; screen: GDSC drug entry 1526): > 5000 nM
AUC [5]: 0.623
IC50 [5]: 694 nM
AUC [6]: 0.989
IC50 [6]: > 1020 nM
AUC [7]: 0.987
IC50 [7]: > 10200 nM

MG-63 (osteosarcoma, adherent)
AUC [1]: 0.629
IC50 [1]: 2400 nM
AUC [2]: 0.854
IC50 [2]: 31800 nM
AUC [3]: 0.527
IC50 [3]: 385 nM
AUC ([4]; screen: GDSC drug entry 1014): 0.755
IC50 ([4]; screen: GDSC drug entry 1014): 1940 nM
AUC ([4]; screen: GDSC drug entry 1526): 0.813
IC50 ([4]; screen: GDSC drug entry 1526): 3230 nM
AUC [5]: 0.983
IC50 [5]: > 5120 nM
AUC [6]: 0.984
IC50 [6]: > 1020 nM
AUC [7]: 0.795
IC50 [7]: 5640 nM

MHH-ES-1 (Ewing sarcoma, adherent)
AUC [1]: 0.619
IC50 [1]: 2110 nM
AUC [2]: 0.68
IC50 [2]: 6310 nM
AUC [3]: 0.472
IC50 [3]: 268 nM
AUC ([4]; screen: GDSC drug entry 1014): 0.984
IC50 ([4]; screen: GDSC drug entry 1014): > 5000 nM
AUC ([4]; screen: GDSC drug entry 1526): 0.984
IC50 ([4]; screen: GDSC drug entry 1526): > 5000 nM
AUC [5]: 0.456
IC50 [5]: 242 nM
AUC [6]: 0.946
IC50 [6]: > 1020 nM
AUC [7]: 0.885
IC50 [7]: > 10200 nM

MHH-NB-11 (neuroblastoma, adherent)
AUC [1]: 0.974
IC50 [1]: > 16000 nM
AUC [2]: 0.451
IC50 [2]: 1450 nM
AUC [3]: 0.69
IC50 [3]: 1160 nM
AUC ([4]; screen: GDSC drug entry 1014): 0.612
IC50 ([4]; screen: GDSC drug entry 1014): 656 nM
AUC [5]: 0.354
IC50 [5]: 121 nM
AUC [6]: 0.981
IC50 [6]: > 1020 nM
AUC [7]: 0.985
IC50 [7]: > 10200 nM

MHH-PREB-1 (B-cell leukaemia, suspension)
AUC [1]: 0.599
IC50 [1]: 1810 nM
AUC [2]: 0.675
IC50 [2]: 5810 nM
AUC [3]: 0.512
IC50 [3]: 344 nM
AUC ([4]; screen: GDSC drug entry 1014): 0.988
IC50 ([4]; screen: GDSC drug entry 1014): > 5000 nM
AUC ([4]; screen: GDSC drug entry 1526): 0.978
IC50 ([4]; screen: GDSC drug entry 1526): > 5000 nM
AUC [5]: 0.185
IC50 [5]: 41.9 nM
AUC [6]: 0.989
IC50 [6]: > 1020 nM
AUC [7]: 0.912
IC50 [7]: > 10200 nM

MIA-PaCa-2 (pancreas, adherent)
AUC [1]: 0.703
IC50 [1]: 3980 nM
AUC [2]: 0.975
IC50 [2]: > 32000 nM
AUC [3]: 0.609
IC50 [3]: 656 nM
AUC ([4]; screen: GDSC drug entry 1014): 0.509
IC50 ([4]; screen: GDSC drug entry 1014): 332 nM
AUC [5]: 0.688
AUC [6]: 0.984
IC50 [6]: > 1020 nM
AUC [7]: 0.851
IC50 [7]: 9060 nM

MKN1 (stomach, adherent)
AUC [1]: 0.711
IC50 [1]: 4090 nM
AUC [2]: 0.86
IC50 [2]: 29300 nM
AUC [3]: 0.6
IC50 [3]: 611 nM
AUC ([4]; screen: GDSC drug entry 1014): 0.929
IC50 ([4]; screen: GDSC drug entry 1014): > 5000 nM
AUC ([4]; screen: GDSC drug entry 1526): 0.882
IC50 ([4]; screen: GDSC drug entry 1526): > 5000 nM
AUC [5]: 0.597
IC50 [5]: 600 nM
AUC [6]: 0.981
IC50 [6]: > 1020 nM
AUC [7]: 0.924
IC50 [7]: > 10200 nM

ML-1 (thyroid, adherent)
AUC [1]: 0.653
IC50 [1]: 2870 nM
AUC [2]: 0.976
IC50 [2]: > 32000 nM
AUC [3]: 0.488
IC50 [3]: 295 nM
AUC ([4]; screen: GDSC drug entry 1526): 0.845
IC50 ([4]; screen: GDSC drug entry 1526): 4580 nM
AUC [5]: 0.505
IC50 [5]: 331 nM
AUC [6]: 0.982
IC50 [6]: > 1020 nM
AUC [7]: 0.908
IC50 [7]: > 10200 nM

ML-2 (acute myeloid leukaemia, suspension)
AUC [1]: 0.701
IC50 [1]: 3400 nM
AUC [2]: 0.574
IC50 [2]: 3110 nM
AUC [3]: 0.543
IC50 [3]: 412 nM
AUC ([4]; screen: GDSC drug entry 1014): 0.756
IC50 ([4]; screen: GDSC drug entry 1014): 1540 nM
AUC ([4]; screen: GDSC drug entry 1526): 0.679
IC50 ([4]; screen: GDSC drug entry 1526): 929 nM
AUC [5]: 0.531
IC50 [5]: 384 nM
AUC [6]: 0.983
IC50 [6]: > 1020 nM
AUC [7]: 0.883
IC50 [7]: 8860 nM

MLMA (hairy cell leukaemia, semi-adherent)
AUC [1]: 0.798
IC50 [1]: 7670 nM
AUC [2]: 0.741
IC50 [2]: 9850 nM
AUC [3]: 0.55
IC50 [3]: 439 nM
AUC ([4]; screen: GDSC drug entry 1014): 0.986
IC50 ([4]; screen: GDSC drug entry 1014): > 5000 nM
AUC ([4]; screen: GDSC drug entry 1526): 0.973
IC50 ([4]; screen: GDSC drug entry 1526): > 5000 nM
AUC [5]: 0.294
IC50 [5]: 83.3 nM
AUC [6]: 0.986
IC50 [6]: > 1020 nM
AUC [7]: 0.946
IC50 [7]: > 10200 nM

MMAC-SF (melanoma, adherent)
AUC [1]: 0.853
IC50 [1]: 13400 nM
AUC [2]: 0.917
IC50 [2]: > 32000 nM
AUC [3]: 0.708
IC50 [3]: 1270 nM
AUC ([4]; screen: GDSC drug entry 1526): 0.235
IC50 ([4]; screen: GDSC drug entry 1526): 51.4 nM
AUC [5]: 0.785
IC50 [5]: 2300 nM
AUC [6]: 0.967
IC50 [6]: > 1020 nM
AUC [7]: 0.894
IC50 [7]: > 10200 nM

MN-60 (B-cell leukaemia, suspension)
AUC [1]: 0.686
IC50 [1]: 3400 nM
AUC [2]: 0.805
IC50 [2]: 16900 nM
AUC [3]: 0.646
IC50 [3]: 827 nM
AUC ([4]; screen: GDSC drug entry 1014): 0.986
IC50 ([4]; screen: GDSC drug entry 1014): > 5000 nM
AUC ([4]; screen: GDSC drug entry 1526): 0.978
IC50 ([4]; screen: GDSC drug entry 1526): > 5000 nM
AUC [5]: 0.42
IC50 [5]: 192 nM
AUC [6]: 0.977
IC50 [6]: > 1020 nM
AUC [7]: 0.907
IC50 [7]: > 10200 nM

MOG-G-CCM (glioma, adherent)
AUC [1]: 0.785
IC50 [1]: 8120 nM
AUC [2]: 0.859
IC50 [2]: > 32000 nM
AUC [3]: 0.522
IC50 [3]: 370 nM
AUC ([4]; screen: GDSC drug entry 1014): 0.926
IC50 ([4]; screen: GDSC drug entry 1014): > 5000 nM
AUC ([4]; screen: GDSC drug entry 1526): 0.926
IC50 ([4]; screen: GDSC drug entry 1526): > 5000 nM
AUC [5]: 0.496
IC50 [5]: 312 nM
AUC [6]: 0.975
IC50 [6]: > 1020 nM
AUC [7]: 0.983
IC50 [7]: > 10200 nM

MOG-G-UVW (glioma, adherent)
AUC [1]: 0.728
IC50 [1]: 4360 nM
AUC [2]: 0.743
IC50 [2]: 9670 nM
AUC [3]: 0.597
IC50 [3]: 586 nM
AUC ([4]; screen: GDSC drug entry 1014): 0.831
IC50 ([4]; screen: GDSC drug entry 1014): 3050 nM
AUC ([4]; screen: GDSC drug entry 1526): 0.815
IC50 ([4]; screen: GDSC drug entry 1526): 2660 nM
AUC [5]: 0.506
IC50 [5]: 333 nM
AUC [6]: 0.987
IC50 [6]: > 1020 nM
AUC [7]: 0.973
IC50 [7]: > 10200 nM

MOLP-8 (myeloma, suspension)
AUC [1]: 0.724
IC50 [1]: 4190 nM
AUC [2]: 0.511
IC50 [2]: 2150 nM
AUC [3]: 0.347
IC50 [3]: 123 nM
AUC ([4]; screen: GDSC drug entry 1014): 0.765
IC50 ([4]; screen: GDSC drug entry 1014): 1760 nM
AUC ([4]; screen: GDSC drug entry 1526): 0.813
IC50 ([4]; screen: GDSC drug entry 1526): 2570 nM
AUC [5]: 0.219
IC50 [5]: 50.2 nM
AUC [6]: 0.964
IC50 [6]: > 1020 nM
AUC [7]: 0.742
IC50 [7]: 3060 nM
